# Data reported in PubChem BioAssay (NCATS).
# Inconclusive means that the source gave no clear call. Such entries were picked first, then a sample of the others. For some of these results: A potency beside an inconclusive call is a rough fit, not a confirmed value. Calls of active or inactive are those of the source. Unless noted, the call rests on the fitted dose curve; in most records, active means well fitted curve in the direction sought with a large enough effect; inconclusive means small, poorly fitted or top-dose-only effect, or another doubt; inactive means no such curve, though single readings can be large; an effect the other way counts as inactive or inconclusive.
# Experiments:
# [1] = molecular target: 3',5'-cyclic-AMP phosphodiesterase 4B (Homo sapiens) (UniProt Q07343); assay: qHTS Assay for Inhibitors of PDE-IV (AID 607; active means well fitted activation curve with a large enough effect in the main read-out, with a control signal flat, not every such curve was filed as active; inconclusive means small, poorly fitted or top-dose-only effect, or effect the other way, or a change in a side signal; further: potency means the concentration at half of the fitted maximal effect; on activation (PDE inhibition): % of control where 0% means no effect); conditions: HEK293 ACTOne CNG channel cells, membrane potential fluorescence; activation (PDE inhibition): at 22.9 µM (top of the series)
# Sequence of UniProt Q07343 (Q07343 whole entry, looked up): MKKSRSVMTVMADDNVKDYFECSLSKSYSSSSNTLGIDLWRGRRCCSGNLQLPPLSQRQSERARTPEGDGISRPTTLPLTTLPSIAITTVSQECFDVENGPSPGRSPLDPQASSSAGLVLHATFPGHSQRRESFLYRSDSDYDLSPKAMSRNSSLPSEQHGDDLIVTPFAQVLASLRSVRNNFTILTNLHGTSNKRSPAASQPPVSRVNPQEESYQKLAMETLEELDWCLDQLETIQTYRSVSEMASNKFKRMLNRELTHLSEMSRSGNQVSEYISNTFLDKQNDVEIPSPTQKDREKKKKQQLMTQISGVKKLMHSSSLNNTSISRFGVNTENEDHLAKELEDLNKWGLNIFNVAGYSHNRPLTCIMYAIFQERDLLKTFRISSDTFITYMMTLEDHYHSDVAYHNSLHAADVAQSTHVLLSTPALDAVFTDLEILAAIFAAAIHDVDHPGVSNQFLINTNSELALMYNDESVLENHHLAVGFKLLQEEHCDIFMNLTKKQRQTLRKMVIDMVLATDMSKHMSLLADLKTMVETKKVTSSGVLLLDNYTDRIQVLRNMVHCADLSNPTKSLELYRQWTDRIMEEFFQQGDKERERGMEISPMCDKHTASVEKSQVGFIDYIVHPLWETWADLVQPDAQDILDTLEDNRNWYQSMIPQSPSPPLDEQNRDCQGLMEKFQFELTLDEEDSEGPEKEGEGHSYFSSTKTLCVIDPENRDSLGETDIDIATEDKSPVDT
# How it was run: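 Live HEK293 cells with a modified cyclic nucleotide-gated (CNG) channel report intracellular cAMP via membrane-potential dye fluorescence (ex 535/em 590 nm). Endogenous PDE-IV was targeted. Compounds were tested at up to 22.9 uM final; RO 20-1724 100 uM served as control.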
# [2] = molecular target: Cytochrome P450 3A4 (Homo sapiens) (UniProt P08684); assay: qHTS Assay for Activators of Cytochrome P450 3A4 (AID 885); further: nearly all actives have a fitted effect of over 65% in size; further: potency means the concentration at half of the fitted maximal effect
# Sequence of UniProt P08684 (P08684 whole entry, looked up): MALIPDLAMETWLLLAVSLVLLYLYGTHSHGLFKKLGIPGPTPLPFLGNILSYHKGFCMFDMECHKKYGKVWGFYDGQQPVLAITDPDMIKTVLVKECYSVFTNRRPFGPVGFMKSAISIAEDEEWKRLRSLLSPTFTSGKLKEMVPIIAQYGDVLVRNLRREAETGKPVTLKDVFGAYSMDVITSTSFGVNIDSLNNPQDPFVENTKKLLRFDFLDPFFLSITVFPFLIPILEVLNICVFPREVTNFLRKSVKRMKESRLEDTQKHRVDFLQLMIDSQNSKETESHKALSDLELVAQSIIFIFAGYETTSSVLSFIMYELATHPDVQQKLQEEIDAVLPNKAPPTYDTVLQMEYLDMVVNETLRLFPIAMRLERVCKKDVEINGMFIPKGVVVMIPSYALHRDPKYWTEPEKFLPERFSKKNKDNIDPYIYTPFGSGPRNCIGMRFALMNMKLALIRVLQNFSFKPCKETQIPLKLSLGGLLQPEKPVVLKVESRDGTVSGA
# How it was run: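 Using 20nM recombinant human CYP3A4 in potassium phosphate (200mM), substrate Luciferin-PPXE at 25uM, luminescent luciferin detection followed a 60-min RT NADPH reaction; data scaled to 57 uM ketoconazole.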
# [3] = molecular target: Cytochrome P450 3A4 (Homo sapiens) (UniProt P08684); assay: qHTS Assay for Inhibitors and Substrates of Cytochrome P450 3A4 (AID 884); conditions: recombinant CYP3A4, Luciferin-PPXE luminescence; activity change, negative = inhibition: at 57.1 µM (top of the series) unless noted; further: potency means the concentration at half of the fitted maximal effect; nearly all actives have a fitted effect of over 50% in size
# How it was run: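 Luminescent readout of luciferin produced by CYP3A4 (20 nM) dealkylation of Luciferin-PPXE, 25 uM (its KM). NADPH-driven reaction ran 60 min at RT after 10 min compound preincubation; data scaled to 57 uM ketoconazole as 100% inhibition.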
# [4] = qHTS Assay for Identification of Small Molecule Agonists for Hypoxia Response Element Signaling Pathway (AID 914; active means well fitted activation curve with a large enough effect in the signal ratio, with a control signal flat, not every such curve was filed as active; inconclusive means small, poorly fitted or top-dose-only effect, or effect the other way, or a change in a side signal; the % refers to the signal ratio; further: potency means the concentration at half of the fitted maximal effect; on activation: top concentration of the series differs between compounds; % of control where 0% means no effect); conditions: ME-180 (cervical carcinoma) HRE-bla reporter, beta-lactamase ratio, CoCl2, 17 h; activation: hits give high values
# How it was run: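 HRE-bla ME-180 cells with beta-lactamase reporter under hypoxia response element, compounds with EC50 CoCl2 for 17 hours at 37 C. CCF4 substrate, 460nm/530nm emission ratio gave %Activity; AC50 from titration series.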
# [5] = molecular target: Cytochrome P450 2C9 (Homo sapiens) (UniProt P11712); assay: qHTS Assay for Inhibitors and Substrates of Cytochrome P450 2C9 (AID 883); conditions: recombinant CYP2C9, luciferin-H luminescence, 60 min; activity change, negative = inhibition: at 11.4 µM (top of the series) unless noted; further: potency means the concentration at half of the fitted maximal effect; nearly all actives have a fitted effect of over 60% in size
# Sequence of UniProt P11712 (P11712 whole entry, looked up): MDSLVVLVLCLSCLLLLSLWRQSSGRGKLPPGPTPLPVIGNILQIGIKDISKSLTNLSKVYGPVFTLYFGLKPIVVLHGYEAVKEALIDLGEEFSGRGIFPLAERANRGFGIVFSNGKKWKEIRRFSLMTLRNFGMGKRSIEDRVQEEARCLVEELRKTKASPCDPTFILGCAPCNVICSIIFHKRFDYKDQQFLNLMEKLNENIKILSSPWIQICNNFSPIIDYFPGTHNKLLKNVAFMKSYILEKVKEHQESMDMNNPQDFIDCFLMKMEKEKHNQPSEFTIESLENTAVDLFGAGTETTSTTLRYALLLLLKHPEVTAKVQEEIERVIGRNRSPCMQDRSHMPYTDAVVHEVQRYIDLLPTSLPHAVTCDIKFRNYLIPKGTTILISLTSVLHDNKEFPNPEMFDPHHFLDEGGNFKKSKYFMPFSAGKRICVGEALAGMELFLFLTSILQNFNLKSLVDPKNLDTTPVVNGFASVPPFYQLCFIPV
# How it was run: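 A luminogenic readout tracked human CYP2C9 (10nM) converting deoxyluciferin (100uM, at KM) in 25mM KPO4 during 60 min at 37C with regenerated NADPH. Values normalized to 57uM sulphaphenazole as complete inhibition.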
# [6] = molecular target: Cytochrome P450 2D6 (Homo sapiens) (UniProt P10635); assay: qHTS Assay for Inhibitors and Substrates of Cytochrome P450 2D6 (AID 891);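 further: luciferin methyl ether substrate demethylated by CYP2D6 with NADPH regeneration; nearly all actives have a fitted effect of over 60% in size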; further: potency means the concentration at half of the fitted maximal effect; on activity change, negative = inhibition: top concentration of the series differs between compounds; on the % scale 0 is the no-effect control and ±100 the full control effect
# Sequence of UniProt P10635 (P10635 whole entry, looked up): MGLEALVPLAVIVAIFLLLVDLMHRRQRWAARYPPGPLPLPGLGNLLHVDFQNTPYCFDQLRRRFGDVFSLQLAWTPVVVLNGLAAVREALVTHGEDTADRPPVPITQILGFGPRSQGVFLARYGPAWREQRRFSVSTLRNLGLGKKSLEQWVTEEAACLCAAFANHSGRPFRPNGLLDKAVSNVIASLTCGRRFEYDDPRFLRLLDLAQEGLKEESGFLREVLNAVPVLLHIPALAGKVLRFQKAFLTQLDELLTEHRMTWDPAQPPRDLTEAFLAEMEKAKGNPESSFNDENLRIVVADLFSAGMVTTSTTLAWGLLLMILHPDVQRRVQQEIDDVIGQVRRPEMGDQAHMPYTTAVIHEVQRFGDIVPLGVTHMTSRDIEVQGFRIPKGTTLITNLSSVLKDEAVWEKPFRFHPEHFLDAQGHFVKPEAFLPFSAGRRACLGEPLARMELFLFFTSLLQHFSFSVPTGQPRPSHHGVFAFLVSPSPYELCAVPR
# How it was run: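 Luminescent read-out of luciferin formed by 5 nM human CYP2D6 demethylating 30 uM Luciferin-ME EGE (Km level) over 60 min at room temperature after NADPH regeneration addition. Data normalized to full inhibition by 1.43 uM quinidine.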
# [7] = molecular target: Cytochrome P450 2C19 (Homo sapiens) (UniProt P33261); assay: qHTS Assay for Inhibitors and Substrates of Cytochrome P450 2C19 (AID 899); conditions: recombinant CYP2C19, luciferin-H EGE luminescence; activity, negative = inhibition: at 11.4 µM (top of the series); further: potency means the concentration at half of the fitted maximal effect; nearly all actives have a fitted effect of over 60% in size
# Sequence of UniProt P33261 (P33261 whole entry, looked up): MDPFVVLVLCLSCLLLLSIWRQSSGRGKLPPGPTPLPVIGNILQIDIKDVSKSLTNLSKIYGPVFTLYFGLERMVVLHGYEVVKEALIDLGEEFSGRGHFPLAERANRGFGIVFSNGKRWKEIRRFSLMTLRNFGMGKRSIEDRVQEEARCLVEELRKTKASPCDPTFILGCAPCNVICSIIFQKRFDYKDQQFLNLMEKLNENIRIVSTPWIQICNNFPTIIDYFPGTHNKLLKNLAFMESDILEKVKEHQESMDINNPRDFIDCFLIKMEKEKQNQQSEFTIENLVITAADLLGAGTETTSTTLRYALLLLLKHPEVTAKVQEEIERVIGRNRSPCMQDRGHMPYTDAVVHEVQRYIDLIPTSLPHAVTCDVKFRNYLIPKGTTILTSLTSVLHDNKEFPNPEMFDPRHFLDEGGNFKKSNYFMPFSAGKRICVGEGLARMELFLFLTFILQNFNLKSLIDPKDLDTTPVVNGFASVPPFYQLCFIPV
# How it was run: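 NADPH-dependent conversion of Luciferin-H EGE (10uM, at KM) by 5nM enzyme in 50mM KPO4, 60 min at 37C following 10 min compound preincubation. Stopped with luciferin detection buffer; luminescence read after 20 min.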
# [8] = qHTS Assay for Identification of Small Molecule Antagonists for NFkB Signaling Pathway (AID 895; active means well fitted inhibition curve with a large enough effect in the signal ratio, with a control signal flat, not every such curve was filed as active; inconclusive means small, poorly fitted or top-dose-only effect, or effect the other way, or a change in a side signal; the % refers to the signal ratio; further: on the % scale 0 is the no-effect control and ±100 the full control effect); conditions: NFkB beta-lactamase reporter cells, FRET ratio 460/530, stimulated with 10 pM TNF alpha; activity change, negative = inhibition: at 38.3 µM (top of the series)
# How it was run: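 NFkB-bla ME-180 cervical carcinoma cells with beta-lactamase reporter under NFkB response element; compounds added, then TNF alpha at 10 pM final (EC50), 5 h at 37 C. LiveBLAzer substrate 2 h, room temperature; emission 460/530 nm at 405 nm excitation.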
# [9] = qHTS Assay for Identification of Small Molecule Agonists for Thrombopoietin (TPO) Signaling Pathway (AID 917); further: potency means the concentration at half of the fitted maximal effect
# How it was run: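 Stimulation at the TPO EC50 (26 pM final) was used to detect activators. Ba/F3 mouse cells bearing human TPO receptor and a luciferase reporter under the Glycoprotein IIb promoter were exposed to compounds for 24 hrs at 37 C.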
# Tags describe the fitted curve by direction and shape or compound fluorescence and quenching.
compound,measurement,setting,value
O=c1c(-c2cccs2)nc2cncnc2n1Cc1ccccc1,Potency,[1],"inconclusive: 12.6 µM [activator, partial curve]"
same,Potency,[2],inactive
COC(=O)c1ccc(C(NC(=O)c2ccccc2)[C@]2(C)C[C@H]2C2CCCCC2)cc1 (some centres undefined),Potency,[1],"inconclusive: 10 µM [activator, partial curve]"
same,Potency,[3],"inconclusive: 6.31 µM [inhibitor, partial curve]"
COC(=O)[C@@]1(Cc2ccccc2)[C@H]2c3cc(C(=O)N4CCCC4)n(C)c3C[C@H]2CN1C(=O)c1ccccc1,Potency,[1],"inconclusive: 12.6 µM [rising, partial curve]"
same,Potency,[3],active: 3.98 µM
Cc1ccc(/C(C#N)=C/c2cccc([N+](=O)[O-])c2)cc1,Potency,[1],inactive
same,Potency,[3],"inconclusive: 3.98 µM [inhibitor, partial curve]"
same,Potency,[4],"inconclusive: 2.51 µM [inhibitor, single point]"
CC(C)c1cccc2nc3c(c(C(C)(C)C)c12)Cn1c-3cccc1=O,Potency,[1],"inconclusive: 10 µM [activator, partial curve]"
same,Potency,[3],"inconclusive: 5.01 µM [inhibitor, partial curve]"
CCCC[C@@H]1C[C@H]1C(NC(=O)c1cccnc1)c1ccc(-c2ccccc2)cc1 (some centres undefined),Potency,[1],"inconclusive: 7.94 µM [activator, partial curve, poor fit]"
same,Potency,[3],"inconclusive: 0.794 µM [inhibitor, full curve]"
COc1ncc2nc(-c3cn(C)c4ccccc34)c(=O)n(-c3ccccc3)c2n1,Potency,[1],"inconclusive: 10 µM [activator, partial curve]"
same,Potency,[3],"inconclusive: 3.16 µM [inhibitor, full curve]"
same,activation,[4],inconclusive: 13.9%
COC(=O)[C@@]1(Cc2ccc(OC)cc2)[C@@H]2C(=CC(=O)[C@H]2CC(=O)C(=O)N(C)C)CN1C(=O)c1ccccc1,Potency,[1],"inconclusive: 10 µM [activator, single point]"
same,Potency,[3],"inconclusive: 2.51 µM [inhibitor, full curve]"
c1ccc2c(c1)Cc1cc3ccccc3nc1-2,Potency,[1],"inconclusive: 10 µM [activator, single point]"
same,Potency,[5],active: 10 µM
same,Potency,[3],active: 20 µM
same,Potency,[6],active: 12.6 µM
CCCC[C@@H]1C[C@H]1C(NC(=O)c1cccs1)c1ccc(-c2ccccc2)cc1 (some centres undefined),Potency,[1],"inconclusive: 5.01 µM [activator, partial curve]"
same,Potency,[3],"inconclusive: 6.31 µM [inhibitor, full curve]"
COc1ccc(-c2cc(=O)c3ccc(O)cc3o2)cc1,Potency,[1],"inconclusive: 19 µM [inhibitor, single point]"
same,Potency,[3],active: 7.94 µM
O=C(C[C@@H](c1ccccc1)N1CCCCC1)c1ccccc1,Potency,[1],inactive
same,Potency,[5],"inconclusive: 3.16 µM [inhibitor, single point]"
O=C(NCc1nc2ccccc2[nH]1)[C@H]1C[C@@H]1[C@H](NP(=O)(c1ccccc1)c1ccccc1)c1ccccc1,Potency,[1],inactive
same,Potency,[3],"inconclusive: 0.794 µM [inhibitor, full curve]"
CC[C@H]1C2=C3C(CC[C@H]4C(OCc5ccc(F)cc5C(F)(F)F)OC[C@](C)([C@@H]34)N(C(=O)OC(C)(C)C)C2)C(COC(C)=O)C1COC(C)=O (some centres undefined),Potency,[1],"inconclusive: 12.6 µM [activator, single point]"
same,Potency,[3],"inconclusive: 2.51 µM [inhibitor, full curve]"
COc1cccc(-c2nc(NCc3cnc(C)cn3)c3ccccc3n2)c1,Potency,[1],"inconclusive: 12.6 µM [activator, single point]"
same,Potency,[3],active: 2.51 µM
same,activation,[4],inactive: 6.27%
COC(=O)N1CCC2(CC1)CCN(c1ccccc1)CC2,Potency,[1],inactive
same,Potency,[2],"inconclusive: 31.6 µM [activator, single point]"
same,Potency,[7],"inconclusive: 5.01 µM [inhibitor, partial curve]"
same,activation,[4],inactive: 0.0011%
CCCC[C@@H]1C[C@H]1C(NC(=O)c1ccccc1)c1ccc(-c2ccccc2)cc1 (some centres undefined),Potency,[1],"inconclusive: 6.31 µM [activator, partial curve]"
same,Potency,[3],"inconclusive: 7.94 µM [inhibitor, partial curve]"
CCCC[C@@H]1C[C@H]1C(NC(=O)Cc1ccccc1)c1ccc(Cl)cc1 (some centres undefined),Potency,[1],"inconclusive: 3.98 µM [rising, partial curve]"
same,Potency,[5],"inconclusive: 1.26 µM [inhibitor, full curve]"
same,Potency,[6],"inconclusive: 7.94 µM [inhibitor, partial curve]"
c1ccc2sc(N3CCN(Cc4ccc5c(c4)OCO5)CC3)nc2c1,Potency,[1],"inconclusive: 3.79 µM [activator, partial curve, poor fit]"
same,Potency,[5],"inconclusive: 7.94 µM [inhibitor, partial curve]"
same,Potency,[7],"inconclusive: 0.631 µM [inhibitor, full curve, poor fit]"
CCC[C@@H]1C[C@@]1(CCC)C(NC(=O)c1ccccc1)c1cccc(Cl)c1 (some centres undefined),Potency,[1],"inconclusive: 6.31 µM [rising, partial curve]"
same,Potency,[3],"inconclusive: 3.98 µM [inhibitor, full curve]"
CC[C@H]1CC[C@H]2[C@@H]3CC=C4C[C@H](OC(C)=O)[C@@H](N)C[C@@]4(C)[C@H]3CC[C@@]12C,Potency,[1],inactive
same,Potency,[3],"inconclusive: 2.51 µM [inhibitor, partial curve]"
C=C1CC[C@@H]2O[C@]2(C)CC[C@@H]2[C@H]1CC2(C)C,Potency,[1],"inconclusive: 9.51 µM [activator, partial curve, poor fit]"
same,Potency,[5],active: 25.1 µM
CC(=O)OCC(=O)[C@]12OC(C)(C)O[C@@H]1C[C@H]1[C@H]3CC=C4C[C@@H](O)CC[C@]4(C)[C@H]3CC[C@]12C,Potency,[1],"inconclusive: 6.31 µM [activator, partial curve, poor fit]"
same,Potency,[5],"inconclusive: 7.94 µM [inhibitor, single point]"
same,activation,[4],inconclusive: -12.3%
COC(=O)[C@@]1(Cc2ccccc2)[C@H]2c3cc(C(=O)N4CCCC4)n(Cc4ccc(C)o4)c3C[C@H]2CN1C(=O)c1ccccc1,Potency,[1],inactive
same,Potency,[3],active: 2 µM
CCC/C=C(\CCC)C(NC(=O)c1ccc(-c2ccccc2)cc1)c1ccc(C(=O)OC)cc1 (centres undefined),Potency,[1],"inconclusive: 3.98 µM [activator, partial curve]"
same,Potency,[3],"inconclusive: 6.31 µM [inhibitor, full curve, poor fit]"
COCCNC(=O)[C@H](C)[C@@H]1C[C@@]1(C)[C@@H](NC(=O)OCc1ccccc1)c1ccccc1,Potency,[1],inactive
same,Potency,[3],active: 7.94 µM
same,Potency,[6],"inconclusive: 7.94 µM [inhibitor, partial curve]"
CCCC[C@@H]1C[C@H]1C(NC(=O)c1ccccc1)c1ccccc1C(F)(F)F (some centres undefined),Potency,[1],"inconclusive: 6.31 µM [rising, partial curve]"
same,Potency,[5],active: 1.26 µM
same,Potency,[3],"inconclusive: 3.16 µM [inhibitor, full curve]"
COC(=O)[C@@]1(Cc2ccc(F)cc2)[C@H]2c3cc(C(=O)N4CCCC4)n(CCc4ccc(OC)c(Br)c4)c3C[C@H]2CN1C(=O)c1ccccc1,Potency,[1],"inconclusive: 10 µM [activator, partial curve]"
same,Potency,[5],active: 3.16 µM
COc1ccccc1-c1oc2ccccc2c(=O)c1OC,Potency,[1],"inconclusive: 15.1 µM [rising, partial curve]"
same,Potency,[6],inactive
S=C(Nc1ccccc1)Nc1ccccc1C#Cc1ccccc1,Potency,[1],"inconclusive: 12.6 µM [activator, single point]"
same,Potency,[3],"inconclusive: 7.94 µM [inhibitor, partial curve]"
O=C(Nc1ccc2ccccc2c1)[C@@H]1C[C@H]1[C@@H](NP(=O)(c1ccccc1)c1ccccc1)c1ccccc1,Potency,[1],inactive
same,Potency,[5],"inconclusive: 7.94 µM [inhibitor, full curve]"
CC(C)=C1C(=O)C(c2ccccc2)=C2CN3C(=O)N(CCc4ccccc4)C(=O)[C@]3(Cc3ccccc3)[C@H]21,Potency,[1],inactive
same,Potency,[3],"inconclusive: 5.01 µM [inhibitor, full curve]"
CCCc1cc2c(n1Cc1cc(F)cc(F)c1)C(C)C1CN(C(=O)c3ccccc3)C(C)(C(=O)OC)C21 (centres undefined),Potency,[1],inactive
same,Potency,[5],active: 6.31 µM
Cc1nc2cnc(OCc3ccccc3)nc2n(CCC#N)c1=O,Potency,[1],"inconclusive: 1.58 µM [activator, full curve]"
same,Potency,[3],"inconclusive: 3.98 µM [inhibitor, partial curve]"
C/C(=C\c1ccc(Cl)cc1)C(C)(C)C(=O)O,Potency,[1],inactive
same,Potency,[5],"inconclusive: 3.16 µM [inhibitor, single point]"
NCCC[C@@H](CC(=O)N[C@@H]1CCNC[C@H]1C(=O)N[C@H](CC(=O)N[C@@H](CCC(=O)O)CC(=O)O)Cc1c[nH]c2ccccc12)NC(=O)C[C@H](CO)NC(=O)[C@@H]1CNCC[C@H]1N,Potency,[1],inactive
same,Potency,[6],inactive
C[C@@H](C(=O)O)c1cccc(C(=O)c2ccccc2)c1,Potency,[1],inactive
same,Potency,[8],inactive
same,Potency,[9],"inconclusive: 12.6 µM [inhibitor, partial curve]"
COc1ccccc1CCn1c(=O)c(-c2cc(F)cc(F)c2)nc2cncnc21,Potency,[1],"inconclusive: 1 µM [activator, full curve]"
same,Potency,[4],"inconclusive: 5.01 µM [activator, single point]"
O=c1c(-c2ccccc2)nc2cncnc2n1C1CC1,Potency,[1],"inconclusive: 2.51 µM [activator, full curve]"
same,Potency,[7],"inconclusive: 3.16 µM [inhibitor, partial curve, poor fit]"
CCc1ncc(CO)n1Cc1cccc2ccccc12,Potency,[1],inactive
same,Potency,[7],"inconclusive: 0.398 µM [inhibitor, partial curve]"
same,activation,[4],inconclusive: 6.35%
